Test results from the supplement of paper PMC12217912.
This is one part of the list. The full chains were built here from the parent and the listed change. Values near 0.05 are background.

B1: TEV protease; numbered along this chain (parent)
chain: MGESLFKGPRDYNPISSSICHLTNESDGHTTSLYGIGFGPFIITNKHLFRRNNGTLVVQSLHGVFKVKDTTTLQQHLVDGRDMIIIRMPKDFPPFPQKLKFREPQREERICLVTTNFQTKSMSSMVSDTSCTFPSGDGIFWKHWIQTKDGQCGSPLVSTRDGFIVGIHSASNFTNTNNYFTSVPKNFMELLTNQEAQQWVSGWRLNADSVLWGGHKVFMVKPEEPFQPVKEATQL

Variants of: B1
Assay: raw area under fraction-flipped curve 0-4 h after induction (AUC4h, not background-subtracted), DNA-recorder readout of cleavage of the substrate (dimensionless); higher = more cleavage of the substrate by the protease variant
Conditions: temperature: 34 °C; time window: 0-4 h after rhamnose induction
Description: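 In vivo DNA recorder in E. coli TOP10(DE3) ΔrhaA at 34 °C. Each TEVp single-site mutant (parent TEVp 0) is paired with a single-site variant of the 7-mer TEVs (canonical ENLYFQ|S). The substrate sits between flexible linkers in a Bxb1-sfGFP-TEVs-SsrA fusion, so cleavage stabilises Bxb1 and speeds flipping of a recombination array, read by NGS. The value is the raw area under the fraction-flipped curve over 0-4 h after rhamnose induction (AUC4h), with ≥20 reads per time point. It is not background-subtracted; inactive controls average about 0.047.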
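Also: Bxb1 expression induced with 0.2% (w/v) L-rhamnose at OD600 near 0.5, cultures sampled hourly, flipped fraction per protease–substrate barcode pair counted by paired-end Illumina sequencing.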

Row | Variant | area with substrate EALYFQS | area with substrate ECLYFQS | area with substrate EELYFQS | area with substrate EFLYFQS | area with substrate EGLYFQS | area with substrate EILYFQS | area with substrate EKLYFQS | area with substrate ELLYFQS | area with substrate EMLYFQS | area with substrate EPLYFQS | area with substrate EQLYFQS | area with substrate ERLYFQS | area with substrate ESLYFQS | area with substrate EWLYFQS | area with substrate EYLYFQS | area with substrate EHLYFQS | area with substrate ETLYFQS | area with substrate EVLYFQS | area with substrate EDLYFQS
1 | V165P | 0.0537 | 0.0594 | 0.125 | 0.0606 | 0.0434 | 0.054 | 0.0374 | 0.0634 | 0.0562 | 0.0508 | 0.0559 | 0.0631 | 0.0608 | 0.0452 | 0.049 |  |  |  | 
2 | I164G | 0.0465 | 0.0411 | 0.06 | 0.0571 |  | 0.0576 | 0.036 | 0.0371 | 0.043 | 0.0445 | 0.0495 | 0.0543 | 0.0514 | 0.0335 |  | 0.0525 | 0.0623 | 0.0577 | 
3 | I164Q | 0.0455 | 0.0568 |  |  | 0.0509 | 0.0488 |  | 0.0504 | 0.058 | 0.0524 | 0.0445 | 0.0527 | 0.0487 | 0.049 | 0.0543 |  |  | 0.0522 | 0.0565
4 | M188S | 0.11 |  | 0.116 | 0.0954 | 0.0617 |  | 0.105 |  | 0.0972 |  | 0.129 | 0.113 | 0.0993 | 0.0853 |  | 0.0942 | 0.103 |  | 0.101
5 | M188N | 0.112 | 0.12 |  |  | 0.109 | 0.0818 | 0.0991 | 0.0978 | 0.102 | 0.117 | 0.116 |  | 0.124 |  | 0.0746 | 0.112 | 0.113 | 0.0781 | 
6 | T174K | 0.0952 |  | 0.138 | 0.102 |  | 0.0843 |  |  |  |  | 0.076 | 0.0943 | 0.0942 | 0.0748 |  |  |  |  | 0.184
7 | T174S | 0.171 | 0.125 |  |  | 0.138 |  |  | 0.099 |  |  |  |  |  |  |  |  |  |  | 
8 | G166F | 0.043 | 0.0506 | 0.0507 |  | 0.0445 |  | 0.0496 |  | 0.0547 |  |  | 0.0477 | 0.0512 | 0.0664 | 0.0819 | 0.0565 |  | 0.0501 | 
9 | G166W | 0.0473 |  | 0.0554 | 0.0487 |  | 0.0476 |  |  |  |  |  | 0.0332 | 0.0472 | 0.0544 |  | 0.0376 |  |  | 0.0494
10 | T159I | 0.127 | 0.106 |  |  | 0.104 | 0.0918 | 0.155 |  | 0.155 | 0.152 | 0.129 | 0.107 |  | 0.123 | 0.103 |  |  |  | 0.165
11 | K185S | 0.128 | 0.15 |  | 0.106 | 0.103 |  |  |  | 0.113 | 0.142 | 0.11 | 0.0903 | 0.0887 | 0.0949 |  |  |  | 0.106 | 
12 | K185M | 0.164 | 0.121 |  |  | 0.0871 |  | 0.14 | 0.097 | 0.102 | 0.123 | 0.145 | 0.106 | 0.0975 | 0.0828 |  | 0.122 | 0.108 | 0.0945 | 
13 | K185C | 0.12 |  | 0.123 | 0.108 | 0.103 | 0.0951 | 0.118 | 0.0815 | 0.127 |  | 0.101 | 0.114 | 0.104 |  | 0.139 | 0.123 |  | 0.0987 | 0.128
14 | S171C | 0.0871 | 0.0726 | 0.0805 |  |  | 0.0795 | 0.0984 |  | 0.102 | 0.0668 |  |  |  | 0.0479 | 0.0882 | 0.0796 |  | 0.0982 | 
15 | S171H | 0.0607 |  |  |  | 0.0616 | 0.0669 | 0.077 |  | 0.0521 |  | 0.0602 |  | 0.0684 | 0.0611 |  | 0.0522 |  | 0.068 | 0.069
16 | S182R | 0.0781 | 0.079 |  |  |  | 0.0476 |  |  | 0.0778 | 0.0765 |  |  | 0.0585 |  |  | 0.0703 | 0.0603 | 0.0817 | 
17 | P184F | 0.0741 |  |  |  |  | 0.0695 | 0.0683 |  | 0.0738 | 0.0796 | 0.0759 | 0.0781 | 0.0716 | 0.0645 |  | 0.078 |  | 0.0576 | 
18 | F187Y | 0.0688 |  | 0.0913 | 0.105 | 0.0455 | 0.0664 | 0.0761 | 0.0959 | 0.0734 | 0.125 |  | 0.0515 | 0.0778 | 0.0689 | 0.0857 |  |  | 0.0824 | 
19 | F187D | 0.0642 | 0.0274 | 0.0338 |  | 0.0503 | 0.0504 |  |  |  | 0.0544 | 0.0573 | 0.0606 | 0.0635 |  |  | 0.111 |  | 0.0439 | 
20 | F187R | 0.0595 |  | 0.0607 | 0.0509 | 0.0597 |  | 0.0505 |  | 0.0351 |  | 0.0583 | 0.0591 | 0.0537 | 0.0515 |  |  | 0.0503 | 0.0526 | 0.0459
21 | L191P | 0.0499 | 0.0408 |  |  | 0.056 |  |  |  | 0.048 | 0.0494 |  |  | 0.0506 |  |  | 0.06 |  | 0.0592 | 
22 | F163I | 0.111 |  |  |  | 0.0627 | 0.108 |  | 0.0673 | 0.106 |  |  |  | 0.0906 | 0.0698 | 0.0596 | 0.106 | 0.0585 | 0.099 | 0.122
23 | Q194N | 0.165 | 0.121 |  |  |  |  | 0.116 |  | 0.122 |  | 0.152 |  | 0.0585 | 0.121 | 0.0986 |  |  | 0.116 | 
24 | Q194H | 0.12 | 0.121 |  |  | 0.117 | 0.0971 | 0.129 | 0.116 |  | 0.156 | 0.121 | 0.0775 | 0.0975 |  | 0.091 | 0.158 |  |  | 
25 | E195A | 0.127 | 0.0886 | 0.0781 |  | 0.105 | 0.0817 | 0.0985 | 0.0967 |  |  | 0.146 | 0.101 | 0.117 | 0.141 | 0.112 | 0.112 | 0.113 | 0.0923 | 
26 | I167V | 0.0751 | 0.0985 |  |  | 0.0891 | 0.0971 |  | 0.0674 | 0.118 | 0.058 | 0.0886 |  | 0.0881 |  |  | 0.112 |  | 0.0896 | 
27 | I167R | 0.0472 | 0.0423 | 0.0484 |  | 0.0546 | 0.0511 | 0.0533 | 0.0341 |  | 0.0478 | 0.0438 | 0.0551 | 0.0526 |  |  |  |  | 0.0398 | 
28 | A170Y | 0.0568 |  |  | 0.0701 |  | 0.0582 |  |  | 0.0644 |  |  |  | 0.0606 |  |  |  |  | 0.0587 | 
29 | A170T | 0.127 |  | 0.0656 |  |  |  |  |  |  |  | 0.0512 |  | 0.0665 |  |  |  |  | 0.059 | 
30 | N175G | 0.13 |  |  |  |  | 0.0988 | 0.0697 |  |  | 0.141 | 0.123 | 0.0981 | 0.103 | 0.085 | 0.103 | 0.101 |  | 0.106 | 0.105
